Results on four compounds are retold here after publication PMC3792642 (Acta Crystallographica Section D: Biological Crystallography, 2013).

Peptide text beside a SMILES is read from it.

For the experiment, the target named is MtbDsbA (Rv2969c) (Mycobacterium tuberculosis, UniProt O33272). Description: ITC of VKOR-derived peptides binding to MtbDsbA. On the set-up: species or system Mycobacterium tuberculosis H37Rv. Particulars: 298 K; for ΔH (enthalpy change) / N (apparent stoichiometry): 2-4 mM peptide into 100 µM MtbDsbA, 25 mM HEPES pH 7.4, 100 mM NaCl; for ΔH (enthalpy change): mean and SD of curve fits from two ITC runs; for N (apparent stoichiometry): two ITC runs; for −TΔS (temperature x entropy change): calculated from the free energy equation (ΔH − TΔS = −RTlnK d,app).

In the case of `CC(=O)N[C@H](C(=O)N1CCC[C@H]1C(=O)N[C@@H](CO)C(=O)N[C@@H](CS)C(=O)N[C@@H](CC(N)=O)C(=O)N[C@H](C(=O)N[C@@H](CC(N)=O)C(=O)N1CCC[C@H]1C(N)=O)C(C)C)C(C)C` [VPSCNVNP] (Ac-VPSCNVNP-NH2), the “ΔH (enthalpy change)” value is -29.7 ± 16.7 kJ/mol and the “N (apparent stoichiometry)” value is given as 1.0.
`CC[C@H](C)[C@H](NC(=O)[C@@H]1CCCN1C(C)=O)C(=O)N[C@@H](Cc1ccc(O)cc1)C(=O)N[C@H](C(=O)N1CCC[C@H]1C(=O)N[C@@H](CO)C(=O)N[C@@H](CS)C(=O)N[C@@H](CC(N)=O)C(=O)N[C@H](C(=O)N[C@@H](CC(N)=O)C(=O)N1CCC[C@H]1C(N)=O)C(C)C)C(C)C` [PIYVPSCNVNP] (Ac-PIYVPSCNVNP-NH2): the “ΔH (enthalpy change)” value was -45.6 ± 0 kJ/mol, the “N (apparent stoichiometry)” value came out at 1.0 and the “−TΔS (temperature x entropy change)” value is 14.6 kJ/mol.
Take `CC(=O)N[C@H](C(=O)N1CCC[C@H]1C(=O)N[C@@H](CO)C(=O)N[C@@H](CS)C(=O)N[C@@H](CC(N)=O)C(=O)N[C@H](C(N)=O)C(C)C)C(C)C` [VPSCNV] (Ac-VPSCNV-NH2): the “ΔH (enthalpy change)” value was -28.5 ± 0.84 kJ/mol, the “N (apparent stoichiometry)” value is recorded as 1.0 and the “−TΔS (temperature x entropy change)” value is -0.42 kJ/mol.
As for `CC(=O)N[C@@H](Cc1ccc(O)cc1)C(=O)N[C@H](C(=O)N1CCC[C@H]1C(=O)N[C@@H](CO)C(=O)N[C@@H](CS)C(=O)N[C@@H](CC(N)=O)C(=O)N[C@H](C(N)=O)C(C)C)C(C)C` [YVPSCNV] (Ac-YVPSCNV-NH2), the “ΔH (enthalpy change)” value is -29.3 ± 1.7 kJ/mol, the “N (apparent stoichiometry)” value is reported as 1.1 and the “−TΔS (temperature x entropy change)” value was -2.1 kJ/mol.
